The test system of assay [1] is RAW-Dual. Put plainly: NF-kB SEAP reporter activity, fold change vs agonist alone; cytotoxicity flag (confluency mask): not cytotoxic; higher = enhanced NF-kB activity. The gist of the method: (§1)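 Reporter activity is given as fold change relative to agonist-alone wells. To measure it, 50 nL of library stock was pin-tooled onto RAW-Dual macrophages (50,000 cells/well, DMEM, 384-well plates), a PRR agonist followed 1 h later, and cells stayed at 37 °C, 5% CO2. Twenty hours on, supernatant was assayed for IRF (QuantiLuc luminescence) and NF-κB (QuantiBlue, 620 nm absorbance), and wells under 70% of agonist-control IncuCyte confluency in both mask sets were marked cytotoxic.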

Assay [2] relates to RAW-Dual. Put plainly: NF-kB SEAP reporter activity, fold change vs agonist alone; higher = enhanced NF-kB activity. The gist of the method:
as §1

Assay [3] concerns RAW-Dual. Put plainly: NF-kB SEAP reporter activity, fold change vs agonist alone; cytotoxicity flag (confluency mask): cytotoxic (confluency <70% of control); higher = enhanced NF-kB activity. In outline:
as §1

Setting [4] is: agonist: ODN 1826 (TLR9) 0.5 ug/mL.
[5] abbreviates: agonist: Pam2CSK4 (TLR2/6) 0.1 ug/mL.
[6] abbreviates: agonist: Pam3CSK4 (TLR2/1) 0.1 ug/mL.
The mark [7] stands for this setting: library stock concentration (final ~1000-fold dilution): 10 mM, cytotoxicity flag (confluency mask): not cytotoxic, agonist: Imiquimod (TLR7) […].
The mark [8] stands for this setting: library stock concentration (final ~1000-fold dilution): 10 mM, cytotoxicity flag (confluency mask): not cytotoxic, agonist: MPLA (TLR4) […].
Setting [9] is: library stock concentration (final ~1000-fold dilution): 10 mM, cytotoxicity flag (confluency mask): cytotoxic (confluency <70% of control), agonist: Imiquimod (TLR7) […].
[10] abbreviates: library stock concentration (final ~1000-fold dilution): 10 mM, cytotoxicity flag (confluency mask): cytotoxic (confluency <70% of control), agonist: MPLA (TLR4) […].

Whole data set: some 2,900 compounds, median “NF-kB SEAP reporter activity, fold change vs agonist alone” near 0.99, cut for the highest 2% near 2.6. The list shows a part of the results.

As for `O=C(OC1OC2COC(=O)c3cc(O)c(O)c(O)c3-c3c(cc(O)c(O)c3O)C(=O)OC(C2O)C1O)c1cc(O)c(O)c(O)c1` (configuration not stated) (library stock concentration (final ~1000-fold dilution): 10 mM), the “NF-kB SEAP reporter activity” value in the assay on RAW-Dual [1] (agonist: LPS (TLR4) 0.1 ug/mL) came out at 1.34; in the assay with RAW-Dual [1] (setting [4]), 0.874; with RAW-Dual [1] (setting [5]), 0.809; with RAW-Dual [1] (setting [6]), 0.393.

Consider `O=Cc1ccc(O)c(O)c1` (library stock concentration (final ~1000-fold dilution): 10 mM), for which the “NF-kB SEAP reporter activity” value came to 0.968 in the assay on RAW-Dual [1] (agonist: LPS (TLR4) 0.1 ug/mL), 0.76 with RAW-Dual [1] (setting [4]), 0.663 in the assay with RAW-Dual [1] (setting [5]) and 0.652 in the assay with RAW-Dual [1] (setting [6]).

Consider `O=Cc1ccc(O)c(O)c1`, for which the “NF-kB SEAP reporter activity” value came to 0.702 in the assay with RAW-Dual [2] (setting [7]) and 1.09 in the assay with RAW-Dual [2] (setting [8]).

On to `COc1cc2ncc(-c3ccccc3)nc2cc1OC`, for which the “NF-kB SEAP reporter activity” value in the assay with RAW-Dual [2] (setting [7]) was 1.16; in the assay with RAW-Dual [2] (setting [8]), 1.39.

On to `COc1cc2ncc(-c3ccccc3)nc2cc1OC` (library stock concentration (final ~1000-fold dilution): 10 mM), for which the “NF-kB SEAP reporter activity” value in the assay on RAW-Dual [1] (agonist: LPS (TLR4) 0.1 ug/mL) came to 1.78; in the assay on RAW-Dual [1] (setting [4]), 1.28; in the assay on RAW-Dual [1] (setting [5]), 0.915; with RAW-Dual [1] (setting [6]) it was 0.864.

Turning to `COc1cc(Nc2ncc(F)c(Nc3ccc4c(n3)NC(=O)C(C)(C)O4)n2)cc(OC)c1OC`, the “NF-kB SEAP reporter activity” value in the assay on RAW-Dual [2] (setting [9]) stood at 1.09; with RAW-Dual [2] (setting [10]), 0.935.

`COc1cc(Nc2ncc(F)c(Nc3ccc4c(n3)NC(=O)C(C)(C)O4)n2)cc(OC)c1OC` (library stock concentration (final ~1000-fold dilution): 10 mM): the “NF-kB SEAP reporter activity” value in the assay with RAW-Dual [3] (agonist: LPS (TLR4) 0.1 ug/mL) is 0.494; in the assay with RAW-Dual [3] (setting [4]) it was 0.706; in the assay with RAW-Dual [3] (setting [5]), 0.343; in the assay on RAW-Dual [3] (setting [6]), 0.287.

As for `O=C(O)CCC(=O)Nc1ccc(Br)cn1`, the “NF-kB SEAP reporter activity” value was 0.981 in the assay with RAW-Dual [2] (setting [7]) and 1.02 in the assay on RAW-Dual [2] (setting [8]).

As to `O=C(O)CCC(=O)Nc1ccc(Br)cn1` (library stock concentration (final ~1000-fold dilution): 10 mM), the “NF-kB SEAP reporter activity” value in the assay with RAW-Dual [1] (agonist: LPS (TLR4) 0.1 ug/mL) came to 1.32; in the assay with RAW-Dual [1] (setting [4]), 1.08; with RAW-Dual [1] (setting [5]), 1.12; in the assay with RAW-Dual [1] (setting [6]), 1.01.

Regarding `COc1ccc(C(=O)Nc2sc3c(c2C(N)=O)CCCC3)cc1OC` (library stock concentration (final ~1000-fold dilution): 10 mM), the “NF-kB SEAP reporter activity” value in the assay with RAW-Dual [1] (agonist: LPS (TLR4) 0.1 ug/mL) came out at 1.16; in the assay with RAW-Dual [1] (setting [4]), 0.988; with RAW-Dual [1] (setting [5]) it was 0.923; with RAW-Dual [1] (setting [6]) it was 0.889.

As to `COc1ccc(C(=O)Nc2sc3c(c2C(N)=O)CCCC3)cc1OC`, the “NF-kB SEAP reporter activity” value in the assay with RAW-Dual [2] (setting [7]) was found to be 0.874; with RAW-Dual [2] (setting [8]) it was 0.972.

For `CC(O)C(=O)O.CC(O)C(=O)O.CN1CCN(c2ccc3nc(-c4c(N)c5c(F)cccc5[nH]c4=O)[nH]c3c2)CC1`, the “NF-kB SEAP reporter activity” value was 1.2 in the assay on RAW-Dual [2] (setting [9]) and 0.674 with RAW-Dual [2] (setting [10]).

Turning to `CC(O)C(=O)O.CC(O)C(=O)O.CN1CCN(c2ccc3nc(-c4c(N)c5c(F)cccc5[nH]c4=O)[nH]c3c2)CC1` (library stock concentration (final ~1000-fold dilution): 10 mM), the “NF-kB SEAP reporter activity” value in the assay with RAW-Dual [3] (agonist: LPS (TLR4) 0.1 ug/mL) is 0.292; with RAW-Dual [3] (setting [4]), 0.23; in the assay on RAW-Dual [3] (setting [5]), 0.347; in the assay with RAW-Dual [3] (setting [6]) it was 0.26.

Consider `CC(N)(Cc1ccc(O)c(O)c1)C(=O)O` (configuration not stated) (library stock concentration (final ~1000-fold dilution): 2 mM), for which the “NF-kB SEAP reporter activity” value was 1.26 in the assay with RAW-Dual [1] (agonist: LPS (TLR4) 0.1 ug/mL), 1.07 in the assay with RAW-Dual [1] (setting [4]), 1.08 with RAW-Dual [1] (setting [5]) and 1.05 in the assay on RAW-Dual [1] (setting [6]).

Consider `CC(N)(Cc1ccc(O)c(O)c1)C(=O)O` (configuration not stated), for which the “NF-kB SEAP reporter activity” value was determined as 0.9 in the assay on RAW-Dual [2] (library stock concentration (final ~1000-fold dilution): 2 mM, cytotoxicity flag (confluency mask): not cytotoxic, agonist: Imiquimod (TLR7) […]) and 1.08 with RAW-Dual [2] (library stock concentration (final ~1000-fold dilution): 2 mM, cytotoxicity flag (confluency mask): not cytotoxic, agonist: MPLA (TLR4) […]).

As to `CC(=O)N1CCC(Nc2cc(C(=O)NCC(O)CN3CCc4ccccc4C3)ncn2)CC1` (configuration not stated), the “NF-kB SEAP reporter activity” value turned out to be 0.92 with RAW-Dual [2] (setting [7]) and 1.03 in the assay with RAW-Dual [2] (setting [8]).

For `CC(=O)N1CCC(Nc2cc(C(=O)NCC(O)CN3CCc4ccccc4C3)ncn2)CC1` (configuration not stated) (library stock concentration (final ~1000-fold dilution): 10 mM), the “NF-kB SEAP reporter activity” value in the assay on RAW-Dual [1] (agonist: LPS (TLR4) 0.1 ug/mL) came out at 1.08; with RAW-Dual [1] (setting [4]) it was 0.948; in the assay on RAW-Dual [1] (setting [5]), 1.13; in the assay with RAW-Dual [1] (setting [6]), 1.17.

Take `CC(=O)NO`: the “NF-kB SEAP reporter activity” value with RAW-Dual [2] (setting [7]) came to 0.966; in the assay with RAW-Dual [2] (setting [8]), 1.01.

For the molecule `CC(=O)NO` (library stock concentration (final ~1000-fold dilution): 10 mM), the “NF-kB SEAP reporter activity” value in the assay on RAW-Dual [1] (agonist: LPS (TLR4) 0.1 ug/mL) was found to be 0.973; in the assay with RAW-Dual [1] (setting [4]), 1.02; in the assay with RAW-Dual [1] (setting [5]), 0.894; in the assay with RAW-Dual [1] (setting [6]), 1.07.

For the molecule `Cc1nc(Nc2ncc(C(=O)Nc3cc(NC(=O)c4cccc(C(F)(F)F)c4)ccc3C)s2)cc(N2CCN(CCO)CC2)n1` (library stock concentration (final ~1000-fold dilution): 10 mM), the “NF-kB SEAP reporter activity” value with RAW-Dual [1] (agonist: LPS (TLR4) 0.1 ug/mL) is 0.472; in the assay with RAW-Dual [1] (setting [4]), 0.971; in the assay on RAW-Dual [1] (setting [5]) it was 0.285; in the assay with RAW-Dual [1] (setting [6]), 0.381.

For `Cc1nc(Nc2ncc(C(=O)Nc3cc(NC(=O)c4cccc(C(F)(F)F)c4)ccc3C)s2)cc(N2CCN(CCO)CC2)n1`, the “NF-kB SEAP reporter activity” value in the assay on RAW-Dual [2] (setting [7]) is 1.06; with RAW-Dual [2] (setting [8]), 1.08.

As for `Cc1cc(C(=O)NNCc2ccccc2)no1`, the “NF-kB SEAP reporter activity” value was 0.939 in the assay with RAW-Dual [2] (setting [7]) and 0.993 in the assay on RAW-Dual [2] (setting [8]).

As for `Cc1cc(C(=O)NNCc2ccccc2)no1` (library stock concentration (final ~1000-fold dilution): 10 mM), the “NF-kB SEAP reporter activity” value in the assay with RAW-Dual [1] (agonist: LPS (TLR4) 0.1 ug/mL) was determined as 1.21; with RAW-Dual [1] (setting [4]), 0.961; in the assay with RAW-Dual [1] (setting [5]), 1.02; in the assay with RAW-Dual [1] (setting [6]) it was 1.34.

As to `O=c1cc(-c2ccc(O)c(O)c2)oc2cc(O)c(C3OC(CO)C(O)C(O)C3O)c(O)c12` (configuration not stated) (library stock concentration (final ~1000-fold dilution): 10 mM), the “NF-kB SEAP reporter activity” value is 0.836 in the assay with RAW-Dual [1] (agonist: LPS (TLR4) 0.1 ug/mL), 0.897 in the assay with RAW-Dual [1] (setting [4]), 1.05 in the assay on RAW-Dual [1] (setting [5]) and 1.07 with RAW-Dual [1] (setting [6]).

In the case of `O=c1cc(-c2ccc(O)c(O)c2)oc2cc(O)c(C3OC(CO)C(O)C(O)C3O)c(O)c12` (configuration not stated), the “NF-kB SEAP reporter activity” value is 0.899 in the assay on RAW-Dual [2] (setting [7]) and 1 in the assay on RAW-Dual [2] (setting [8]).

Regarding `Cc1cccc(/C=N/Nc2cc(N3CCOCC3)nc(OCCc3ccccn3)n2)c1`, the “NF-kB SEAP reporter activity” value stood at 2.47 in the assay on RAW-Dual [2] (setting [7]) and 2.3 in the assay with RAW-Dual [2] (setting [8]).

For the molecule `Cc1cccc(/C=N/Nc2cc(N3CCOCC3)nc(OCCc3ccccn3)n2)c1` (library stock concentration (final ~1000-fold dilution): 10 mM), the “NF-kB SEAP reporter activity” value came out at 2.52 in the assay on RAW-Dual [1] (agonist: LPS (TLR4) 0.1 ug/mL), 1.2 in the assay on RAW-Dual [1] (setting [4]), 1.05 with RAW-Dual [1] (setting [5]) and 1.54 in the assay with RAW-Dual [1] (setting [6]).

The values above are taken from the supplement of paper PMC10037445.
